Some of the results follow.
B1: ENSG00000115641:stop:overlap|stop_codon|ENSG00000115641|stop_codon|NA|stop_codon (ssRNA)
RNA: GGGAGUUCUACAGUCCGACGAUCCCAUCGGCUGUGACUGCAAGGUACCUGCUGCGGGCCUCUGCGGGUCCCCGGCGCUCCCCUAGGAAACACGGGUUUCUCUGUGGUUUGUGCUGAAGCCCUGAUCCACCACUGAAGUCUGUCCAACAGAGGAUUGAGCAUCA
B2: chr1:151249111:151249212:+|3pUTR|ENSG00000143398|unk|total|mutant (ssRNA)
RNA: GGGAGUUCUACAGUCCGACGAUCGCAGAUUGUUGAAUUCCUGUUCUAUCCCUUCUCUAUCCCACCCUGCCUUGAUAAUAUGUCCGCCCAUACCCCAAAUAACUGUCUAUAUCCGACACCCCCAGCCAGUUUCUGGCUGCCUGUCAACAGAGGAUUGAGCAUCA
B3: chr15:91915990:91916091:+|CDS|ENSG00000176463|msi1|FALSE|unique (ssRNA)
RNA: GGGAGUUCUACAGUCCGACGAUCGUCCUGACCACCCUGGAGCGUAGGUUCAACCUGCAGAGCGCUGACGUGGGUGUGAUCGCUAGCAGCUUCGAGAUCGGGAACCUGGCGCUCAUCCUCUUCGUGAGCUACUUCGGGGCACGCCAACAGAGGAUUGAGCAUCA
B4: chr20:63933867:63933968:+|3pUTR|ENSG00000101152|msi1|total|mutant (ssRNA)
RNA: GGGAGUUCUACAGUCCGACGAUCAUCAGAGUGGGCCCCUUGCCAGGUGGCUUUUCAGUUACAGAGUCCAGUGGACCAUUUUGCCGAACCAUGCAGCUCCCUGCGGAAGGUGGGGCCGGGUGGGAAAGAGGAGCAGGUCUGGAGCAACAGAGGAUUGAGCAUCA
B5: chr3:186538440:186538695:-|three_prime_utr|ENSG00000213139|control|control|control (ssRNA)
RNA: GGGAGUUCUACAGUCCGACGAUCACAUGAAUGGGGCCAUAUUCUUCCUGGGGCCCAAAUGCUGGCUGGCCUUGUGGUCCAAAUAGGCAUCAUCAAUAAAACAGUUGGCAUGCAUCCCACUGCUGACUAUAAUGCCUCUCCUUACAACAGAGGAUUGAGCAUCA
B6: chr12:50748518:50748596:+|3pUTR|ENSG00000066084|msi1_unk|FALSE|overlapping (ssRNA)
RNA: GGGAGUUCUACAGUCCGACGAUCUCAAAUUCAAACUACAGUACUGUGUAAUUAUGUAUAAAGUUUUUUUAUUUAUUUGAAGUUAGACUAGAUAUACGUUUUUAAAUUUAACAUCUGGCUGGACAGUGUUCUAUUAACUCAUUGCAACAGAGGAUUGAGCAUCA
B7: ENSG00000136451:be:win_2801|3pUTR|ENSG00000136451|bound_else_gene|NA|bound_elsewhere_windowed (ssRNA)
RNA: GGGAGUUCUACAGUCCGACGAUCAGCAAUGAUUAUGCACGUUGAGACAUGUGCUUUUUAUUUCUUAGCAAGAUAUUUUAUCUCUGUACAUAAAGUAGAAACCAAAAGCUAGGGAAACAGAUACUCUUUACACCAUCAUGCCACCAACAGAGGAUUGAGCAUCA
B8: ENSG00000168297:stop:overlap|stop_codon|ENSG00000168297|stop_codon|NA|stop_codon (ssRNA)
RNA: GGGAGUUCUACAGUCCGACGAUCCUGGGGCCAGCUCACCUCUCACGUCCCCGUCAUCGCCAACUCCACCCUCUACAUCAGGUUAGUGAUGGAGUAAAGUGACAUGCCACCUUCCUGUCCGCCAACAGGAGGAGCGGGCUGUGCCAACAGAGGAUUGAGCAUCA
B9: ENSG00000136451:be:win_3151|3pUTR|ENSG00000136451|bound_else_gene|NA|bound_elsewhere_windowed (ssRNA)
RNA: GGGAGUUCUACAGUCCGACGAUCUGAGACAGACUUCCUACAUCAGGGACAGGUAUCUGUGUGUCAUUAUACAAAACAGUUCUAGGGGGUUGAACUACAUAGUAAAAAAAUAAAAUAAAUAGUACUUAGUGUAAAAUAAUUUUACAACAGAGGAUUGAGCAUCA
B10: chr9:116699486:116699595:+|CDS|ENSG00000119401|unk|total|mutant (ssRNA)
RNA: GGGAGUUCUACAGUCCGACGAUCUUCCGCUGCAUUGCUGGCAUGUGUGUGGAUGCUCGUGGUGAUCUCAUCGUGGCUGACAGCCGUCGCAAGGAAAUUCUCCAUUUUCCUAAGGGUGGGGGCUACCGUGUCCUUAUUCGAGAGCAACAGAGGAUUGAGCAUCA
B11: chr3:25596636:25596694:+|3pUTR|ENSG00000077092|msi1_unk|total|mutant (ssRNA)
RNA: GGGAGUUCUACAGUCCGACGAUCUCCCCAGUACCUUCAGUUCCAGGAUUUAAAAUGCAAGAAAAAACAUUUUUACUGCUGCUCCGUUUUUGGACUGAAAAGAUAUUAAAACUCAAGAAGGACCAAGAAGUUUUCAUAUGUAUCCAACAGAGGAUUGAGCAUCA
B12: chr3:50258797:50258898:+|3pUTR|ENSG00000114353|msi1|FALSE|unique (ssRNA)
RNA: GGGAGUUCUACAGUCCGACGAUCGCACAAGAAGCGUGAGACGCCACCAUUCCUGGAAACCACAGUCCACCUGCUCAUUCUCGUAGCUUUUUAAAAAAAUGAAAGUAAAGGAAAAAAAAAAAACUGCAAAUCUAGAAAACUUUUCAACAGAGGAUUGAGCAUCA
B13: chr5:136975339:136975545:-|3pUTR|ENSG00000152377|msi1|FALSE|unique (ssRNA)
RNA: GGGAGUUCUACAGUCCGACGAUCAGAGCCCAUCAAAUCCUGAGUGUCAGUUUGUUGUCCCUAUUGUAGAUGAAAUAGUGAUGUAGCAAAAACCUAGUAAAUUCUGAAUGCUUUUCCACGUAGACUUAUCUGGAAUGUGAACACCAACAGAGGAUUGAGCAUCA
B14: chr17:67854386:67854487:+|CDS|ENSG00000171634|unk|total|mutant (ssRNA)
RNA: GGGAGUUCUACAGUCCGACGAUCAGAGGCAGAGGACUACCCAUAUGGACCAGCCGAGAACAAGAUCAAAGUUCUACAGUUUCCCGUCGAUCAGUUUCUUACAACAAAUAUUGCUCGAGAGGAAUUGAUGUCUGAAGGGGUGAUCAACAGAGGAUUGAGCAUCA
B15: ENSG00000136451:be:win_1601|3pUTR|ENSG00000136451|bound_else_gene|NA|bound_elsewhere_windowed (ssRNA)
RNA: GGGAGUUCUACAGUCCGACGAUCAAUAUUUACCAGCAACUUAACUUUUAGUUGAUUAAAGCAAAAAGUAAACCAUGAAAUUGGGAGAUUUUAUUACAUUAGUUAAUAAGAGUGUGGUAGCAUUUUUCUCCAAUUUGGCUGGGACAACAGAGGAUUGAGCAUCA
B16: chr2:32415436:32415554:+|CDS|ENSG00000115760|unk|total|mutant (ssRNA)
RNA: GGGAGUUCUACAGUCCGACGAUCUGGGACUUUGGUUCAGUGCUUGAGGCUGCCAAAGUUUGCAGAGGAGGAGAAUCUUUGUACCGACUCAAUAACUCCUUGUGCUGACGGAAUUCAUUUGUUGGCCGGACUGCGGACAUGCCCCAACAGAGGAUUGAGCAUCA
B17: ENSG00000136451:be:win_4351|3pUTR|ENSG00000136451|bound_else_gene|NA|bound_elsewhere_windowed (ssRNA)
RNA: GGGAGUUCUACAGUCCGACGAUCCCCCUCCUACGGUGUGCUCCUGAAUGAAGGUUUCUAUGUAAGCAGAUGAUGAUUUUACCUGUCAAUACCAGCACUGUAUUACUAACAUGCAAAAUACUGCAGAUUUAUUUUGAAAAUUAACAACAGAGGAUUGAGCAUCA
B18: chr19:12898785:12899385:-|three_prime_utr|ENSG00000161860|control|control|control (ssRNA)
RNA: GGGAGUUCUACAGUCCGACGAUCUCAGAAGUACAGACCAACAGAGAUGGUGAAUGCUGACAGCUGCCGGGAGACUCACGCCUUAGUGACAGUCUCCAGGAGAAGACUGUGAGGCCACCAUUUGGGCCACACUGAGAAAUUGUUCAACAGAGGAUUGAGCAUCA
B19: chr1:205434884:205440924:-|three_prime_utr|ENSG00000281406|control|control|control (ssRNA)
RNA: GGGAGUUCUACAGUCCGACGAUCUGCCUGCUUCUGGCUGGGGCUUGGAGCAGGAAGCCGUGUGUGUAUCUUAAGUCUUGAUUUAGCCAGUGCUCUUCUCAGCCUGACUCUCACCCGAGGGCAUCAGCCUCCUGUGUGCCUCUCCAACAGAGGAUUGAGCAUCA
B20: chr1:20111938:20114255:-|three_prime_utr|ENSG00000117215|control|control|control (ssRNA)
RNA: GGGAGUUCUACAGUCCGACGAUCACCAGAAGCGACUGCGUUUCUACUGGCGGCCCCACUGCCGGGGGCAGACCCCUGGGUGCUAGAAGCCCACACCCUCUACCCUGUUCCUCAGCAUGGAGCUCUGGCAUCCCCACCUCAGUACAACAGAGGAUUGAGCAUCA
B21: chr10:43184366:43184487:+|3pUTR|ENSG00000169826|unk|total|mutant (ssRNA)
RNA: GGGAGUUCUACAGUCCGACGAUCCCGUUUAUUUGAGCCAGCUCUAUCAGGGUCUUCCCAUGGUGGUUCAGAACCGAUGAGCACCGCAUGGUUUUGUUUGUUUUUGCUUUCAAUUUUCUAAUUUGGCAUGGAUCCAUAUGUAUUCAACAGAGGAUUGAGCAUCA
B22: chr4:185586528:185586629:-|3pUTR|ENSG00000154556|msi1|FALSE|unique (ssRNA)
RNA: GGGAGUUCUACAGUCCGACGAUCAUCCAUAUGAUAUGUUGUACAUUUUAUGGAAAUGUAAUAGAAUCUCACACAUUAUUUUAUAGAAAUAGAGUACAGAAGCAUCACAAGUAUUAAAGUUGGUUUUAGCAAGGAUUAGGAUUACAACAGAGGAUUGAGCAUCA

target: MSI1 full-length (mouse, UniProt Q61474 1-362); test: nsRBNS (natural sequence RNA bind-n-seq); RBNS binding buffer (assumed for nsRBNS): 25 mM Tris pH 7.5, 150 mM KCl, 3 mM MgCl2, 0.01% Triton X-100, 500 ug/ml BSA, 20 U/ml SUPERase-In, 4 C; UNK is unkempt and MSI1 is Musashi-1; names of the RNAs are library labels; protein concentration not given here; high values mean tight binding
Sequence of UniProt Q61474 (Q61474 whole entry): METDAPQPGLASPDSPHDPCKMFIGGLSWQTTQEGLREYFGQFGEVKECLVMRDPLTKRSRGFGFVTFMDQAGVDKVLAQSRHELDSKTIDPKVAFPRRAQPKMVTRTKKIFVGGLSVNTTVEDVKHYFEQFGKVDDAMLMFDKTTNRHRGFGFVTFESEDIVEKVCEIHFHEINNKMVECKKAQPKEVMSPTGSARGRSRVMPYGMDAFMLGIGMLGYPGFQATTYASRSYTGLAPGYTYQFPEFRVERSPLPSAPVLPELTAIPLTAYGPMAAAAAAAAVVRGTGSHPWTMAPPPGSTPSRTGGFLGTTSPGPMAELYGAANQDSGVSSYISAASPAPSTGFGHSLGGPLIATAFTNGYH

| Binder | binding signal |
| --- | --- |
| B1 | 0.456 enrichment R |
| B2 | 0.992 enrichment R |
| B3 | 0.519 enrichment R |
| B4 | 0.606 enrichment R |
| B5 | 0.434 enrichment R |
| B6 | 5.2 enrichment R |
| B7 | 1.38 enrichment R |
| B8 | 0.824 enrichment R |
| B9 | 15.5 enrichment R |
| B10 | 0.489 enrichment R |
| B11 | 0.344 enrichment R |
| B12 | 1.04 enrichment R |
| B13 | 11.5 enrichment R |
| B14 | 0.394 enrichment R |
| B15 | 1.37 enrichment R |
| B16 | 0.47 enrichment R |
| B17 | 0.692 enrichment R |
| B18 | 0.289 enrichment R |
| B19 | 0.476 enrichment R |
| B20 | 0.646 enrichment R |
| B21 | 0.39 enrichment R |
| B22 | 34.5 enrichment R |

Source: article PMC12136788
